# Measurements as given in the supplement of paper PMC4466236.
# In all, about 33,000 sequences were measured (“E-score (dimensionless, -0.5 to 0.5)”: median about -0.058, highest 2% from about 0.35 on). This is one part of the list.
# Tested on: MvaT
# Experiment: PBM 8-mer E-score (mean of HK and ME arrays) (E-score (dimensionless, -0.5 to 0.5)); higher = stronger relative binding preference; most listed sequences are background and not binding sites
# Procedure, shortened: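 Reported values are rank-based E-scores, taken as the mean of two universal arrays and parsed with a custom script. Each 8-mer score falls between -0.5 and 0.5. The arrays, ME and HK, were double-stranded 60-mers with a constant 25-mer primer region and a variable 35-mer region covering all 8-mers. They were probed, by an earlier protocol, with full-length P. aeruginosa MvaT carrying an N-terminal glutathione S-transferase fusion.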
row,Sequence,PBM 8-mer E-score
1,AAGTGGCA,-0.105
2,GATGCCCC,-0.271
3,AGCCCCGC,-0.235
4,CGCTAATA,0.235
5,GTTAAACA,0.282
6,CTGCCTCA,-0.248
7,GATTAGCA,-0.0207
8,TCGCAACA,0.102
9,ATTGACCA,-0.0249
10,CAGAGGTA,-0.2
11,GGATCCAC,-0.209
12,GATGCCGC,-0.185
13,GGGCTCAA,-0.301
14,AATTCGCA,0.167
15,CGAGCTCG,-0.124
16,GGCGTAGA,-0.167
17,CTAACACC,0.0346
18,CGCGTAGC,-0.129
19,CCCTACGG,-0.245
20,GATCACGA,-0.0215
21,CTAGAATA,0.229
22,ATACTCGC,0.143
23,GACACTAC,-0.194
24,CCTTCAGC,-0.267
25,CCGCGGAG,-0.273

row,Sequence,PBM 8-mer E-score
1,CAGACATA,0.126
2,ATACATCA,0.192
3,ACTAGCGA,-0.0912
4,AAACGGCA,0.0119
5,GTCTTCAA,0.117
6,CCATTTGA,0.000356
7,CGTGCTAA,0.0161
8,AATCTTGT,0.0955
9,GTCGCAGA,-0.201
10,ACCCTCCC,-0.077
11,GATCGACA,-0.231
12,ACGTCAAC,-0.0213
13,TACTCCAA,0.097
14,AACGAAGG,-0.134
15,TCTTCGCA,-0.0246
16,CTTCAGTC,-0.175
17,GATCAGGC,-0.219
18,ATTGAGTG,0.14
19,AGTCTAGA,-0.0983
20,TCCAAGGA,-0.0392
21,GAGCACTA,-0.0139
22,ATCGCAAA,0.0978
23,GCGCTGGA,-0.137
24,TATTGCCA,0.178
25,CGAAGTCA,-0.0654

row,Sequence,PBM 8-mer E-score
1,ATTCGCTC,-0.0854
2,AAGATGGA,-0.103
3,GCTGCCCA,-0.142
4,AGCGTTGG,-0.19
5,GCTAATCA,0.0157
6,ACAGCTCC,-0.144
7,GATGTTCC,-0.0754
8,ATTCGTAC,0.113
9,AAGAGATA,0.264
10,TACAATCA,0.213
11,AAATGTAG,0.0975
12,CCGTATGC,-0.153
13,CAGTTAAA,0.254
14,AGCCCTCG,-0.302
15,TTCTTAAA,0.165
16,AACAGATG,-0.128
17,GCGCGACC,-0.249
18,GTCCATGA,-0.196
19,CAGAAGGA,-0.283
20,AACCTAAG,-0.0643
21,AACTAGGG,0.0199
22,ACAAAAAA,0.21
23,CCCGCAAA,-0.0361
24,AAACAAAA,0.278
25,TACCTAGA,0.00753

row,Sequence,PBM 8-mer E-score
1,CAGGAAAA,0.123
2,CGCGAGAA,-0.00932
3,CACTGTCA,-0.00906
4,CTCGCCTA,0.0159
5,CGGACCAC,-0.254
6,CATTTGTA,0.188
7,AAAGTTAC,0.212
8,AGGGGCAT,-0.105
9,GGTATTAA,0.34
10,AGACTGAG,-0.0794
11,AGCCCGCT,-0.304
12,CGACCATA,-0.0528
13,ATACGTCG,0.0454
14,AAAGACAT,0.0953
15,TACAAATA,0.355
16,CGCCTGCA,-0.25
17,ACGGACTG,-0.213
18,CGAACTAA,0.25
19,AAAAACCA,0.119
20,GGAAATCC,-0.0433
21,GACGACGA,0.0375
22,GCGATAAC,0.0226
23,CATGTGAG,-0.162
24,ACAATGCC,-0.0495
25,ATAAAGGG,0.0945

row,Sequence,PBM 8-mer E-score
1,GCCTTGCA,-0.217
2,CCTCTAAA,-0.0345
3,AGCATCTC,-0.227
4,AGCAGAGC,-0.303
5,AGGACGTC,-0.222
6,CACCATCG,-0.148
7,ACCCTCTC,-0.289
8,GTCCCTAA,-0.207
9,CTCGCAAA,-0.0615
10,GACTGTAC,-0.0739
11,GCACAAAA,0.159
12,CATTACGA,0.0396
13,AACGATAA,0.241
14,ATAACCCG,0.156
15,CCTGGGAA,-0.216
16,CCGATTCG,-0.146
17,ACGGTCAA,-0.0499
18,CCTGATCA,-0.152
19,CGTCATCC,-0.217
20,AAAGGATC,-0.143
21,CGAACCCA,-0.131
22,AAACTCTC,0.0917
23,CATGGTTA,0.103
24,AAGGACTT,0.0123
25,AGCCTCAT,-0.214

row,Sequence,PBM 8-mer E-score
1,ATCTCATC,-0.00972
2,CAAATCCA,0.0254
3,CGCCACCG,-0.158
4,CTGTACGA,-0.0883
5,AGTGTGAG,0.0235
6,AAGGGTCT,-0.221
7,CTTGGATA,0.0476
8,ACCAGTAG,-0.0146
9,ATTGGCGA,-0.1
10,GTTTAGGA,-0.00619
11,AGAGCGGA,-0.0697
12,AATCACCT,-0.0485
13,CTCACGTA,-0.0298
14,AAGTTTAA,0.357
15,AAAGGGTT,-0.115
16,CGAACGTC,-0.286
17,ACATACAA,0.362
18,GACCTGCA,-0.064
19,AATACAGT,0.194
20,AGGTGCTG,-0.153
21,AAAATTAG,0.162
22,AACGAGAC,0.0319
23,CATACAAA,0.206
24,AAACCCTG,-0.121
25,CCCCAGCG,-0.0757

row,Sequence,PBM 8-mer E-score
1,CACTCGGG,-0.309
2,TACCCCAA,-0.0573
3,TCGCATAA,0.12
4,GTGATACA,0.152
5,CATCCGTC,-0.323
6,AGATTGCC,-0.076
7,CGACAATA,0.242
8,CTCCCAAG,-0.155
9,GTCCTTCA,-0.143
10,ATGCCTGA,-0.115
11,ATTAGCCC,0.0535
12,ACCTAATC,-0.0335
13,AAAGATAT,0.317
14,GAAACATC,0.115
15,GAATGCCC,-0.204
16,ATGTGGAG,0.0521
17,CACGCCCG,-0.2
18,CCAGATTC,0.0138
19,TCGCAGCA,-0.0769
20,ATTGCGCG,0.178
21,CATAAGGC,-0.0599
22,GGAAGCAA,-0.152
